# Test results: the supplement of paper PMC8728848
# This is one part of the list.
# B1: SSR1 (Sclerotium rolfsii), A0A0M3KL30 (protein)
# chain: TYKITVRVYQTNPDAFFHPVEKTVWKYANGGTWTITDDQHVLTMGGSGTSGTLRFHADNGESFTATFGVHNYKRWCDIVTNLAADETGMVINQQYYSQKNREEARERQLSNYQVKNAKGRNFQIVYTEAEGNDLHANLIIG
# Columns and labels:
# Assay in all cases: glycan array binding signal (z-score within array); higher = stronger binding
# Details in all cases: glycan notation: IUPAC condensed, linker removed
# [1] = biological target: Neu5Ac(a2-3)Gal(b1-3)[Neu5Ac(a2-6)]GlcNAc(b1-3)[Fuc(a1-3)[Gal(b1-4)]GlcNAc(b1-6)]Gal(b1-4)Glc
# Procedure, shortened: (§1)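 Negative Z-scores can be read as non-binding. The Z-score is calculated within each array and then averaged across arrays of one protein sequence at different concentrations or buffers and across linkers. Arrays, 3228 in all, were curated from the Consortium for Functional Glycomics database and kept only where the protein sequence was available.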
# [2] = biological target: Neu5Ac(a2-3)Gal(b1-3)]Neu5Ac(a2-3)Gal(b1-4)]GlcNAc
# Procedure, shortened: as §1
# Neu5Ac(a2-3)Gal(b1-4)Glc = biological target: Neu5Ac(a2-3)Gal(b1-4)Glc
# Procedure, shortened: as §1
# [3] = biological target: Neu5Ac(a2-3)Gal(b1-4)GlcNAc
# Procedure, shortened: as §1
# [4] = biological target: Neu5Ac(a2-3)Gal(b1-4)GlcNAc(b1-2)Man
# Procedure, shortened: as §1
# [5] = biological target: Neu5Ac(a2-3)Gal(b1-4)GlcNAc(b1-2)Man(a1-3)[GlcNAc(b1-4)][Neu5Ac(a2-3)Gal(b1-4)GlcNAc(b1-2)Man(a1-6)]Man(b1-4)GlcNAc(b1-4)GlcNAc
# Procedure, shortened: as §1
# [6] = biological target: Neu5Ac(a2-3)Gal(b1-4)GlcNAc(b1-2)Man(a1-3)[Neu5Ac(a2-3)Gal(b1-4)GlcNAc(b1-2)Man(a1-6)]Man(b1-4)GlcNAc(b1-4)GlcNAc
# Procedure, shortened: as §1
# [7] = biological target: Neu5Ac(a2-3)Gal(b1-4)GlcNAc(b1-2)Man(a1-3)[Neu5Ac(a2-3)Gal(b1-4)GlcNAc(b1-2)Man(a1-6)]Man(b1-4)GlcNAc(b1-4)[Fuc(a1-6)]GlcNAc
# Procedure, shortened: as §1
# [8] = biological target: Neu5Ac(a2-3)Gal(b1-4)GlcNAc(b1-2)Man(a1-3)[Neu5Ac(a2-6)Gal(b1-4)GlcNAc(b1-2)Man(a1-6)]Man(b1-4)GlcNAc(b1-4)GlcNAc
# Procedure, shortened: as §1
# [9] = biological target: Neu5Ac(a2-3)Gal(b1-4)GlcNAc(b1-2)[Neu5Ac(a2-3)Gal(b1-4)GlcNAc(b1-4)]Man(a1-3)[GlcNAc(b1-4)][Neu5Ac(a2-3)Gal(b1-4)GlcNAc(b1-2)[Neu5Ac(a2-3)Gal(b1-4)GlcNAc(b1-6)]Man(a1-6)]Man(b1-4)GlcNAc(b1-4)GlcNAc
# Procedure, shortened: as §1
# [10] = biological target: Neu5Ac(a2-3)Gal(b1-4)GlcNAc(b1-2)[Neu5Ac(a2-3)Gal(b1-4)GlcNAc(b1-4)]Man(a1-3)[GlcNAc(b1-4)][Neu5Ac(a2-3)Gal(b1-4)GlcNAc(b1-4)Man(a1-6)]Man(b1-4)GlcNAc(b1-4)GlcNAc
# Procedure, shortened: as §1
# [11] = biological target: Neu5Ac(a2-3)Gal(b1-4)GlcNAc(b1-2)[Neu5Ac(a2-3)Gal(b1-4)GlcNAc(b1-6)]Man(a1-6)[Neu5Ac(a2-3)Gal(b1-4)GlcNAc(b1-2)Man(a1-3)]Man(b1-4)GlcNAc(b1-4)GlcNAc
# Procedure, shortened: as §1
# [12] = biological target: Neu5Ac(a2-3)Gal(b1-4)GlcNAc(b1-2)[Neu5Ac(a2-3)Gal(b1-4)GlcNAc(b1-6)]Man(a1-6)[Neu5Ac(a2-3)Gal(b1-4)GlcNAc(b1-2)Man(a1-3)][GlcNAc(b1-4)]Man(b1-4)GlcNAc(b1-4)GlcNAc
# Procedure, shortened: as §1
# [13] = biological target: Neu5Ac(a2-3)Gal(b1-4)GlcNAc(b1-3)Gal
# Procedure, shortened: as §1
# [14] = biological target: Neu5Ac(a2-3)Gal(b1-4)GlcNAc(b1-3)Gal(b1-3)GlcNAc
# Procedure, shortened: as §1
# [15] = biological target: Neu5Ac(a2-3)Gal(b1-4)GlcNAc(b1-3)Gal(b1-4)GlcNAc
# Procedure, shortened: as §1
# [16] = biological target: Neu5Ac(a2-3)Gal(b1-4)GlcNAc(b1-3)Gal(b1-4)GlcNAc(b1-2)Man(a1-3)[Neu5Ac(a2-3)Gal(b1-4)GlcNAc(b1-3)Gal(b1-4)GlcNAc(b1-2)Man(a1-6)]Man(b1-4)GlcNAc(b1-4)GlcNAc
# Procedure, shortened: as §1
# [17] = biological target: Neu5Ac(a2-3)Gal(b1-4)GlcNAc(b1-3)Gal(b1-4)GlcNAc(b1-3)Gal(b1-4)GlcNAc
# Procedure, shortened: as §1
# [18] = biological target: Neu5Ac(a2-3)Gal(b1-4)GlcNAc(b1-3)Gal(b1-4)GlcNAc(b1-3)Gal(b1-4)GlcNAc(b1-2)Man(a1-3)[Neu5Ac(a2-3)Gal(b1-4)GlcNAc(b1-3)Gal(b1-4)GlcNAc(b1-3)Gal(b1-4)GlcNAc(b1-2)Man(a1-6)]GalNAc
# Procedure, shortened: as §1
# [19] = biological target: Neu5Ac(a2-3)Gal(b1-4)GlcNAc(b1-3)Gal(b1-4)GlcNAc(b1-3)GalNAc
# Procedure, shortened: as §1
# [20] = biological target: Neu5Ac(a2-3)Gal(b1-4)GlcNAc(b1-3)Gal(b1-4)GlcNAc(b1-3)[Neu5Ac(a2-3)Gal(b1-4)GlcNAc(b1-3)Gal(b1-4)GlcNAc(b1-6)]GalNAc
# Procedure, shortened: as §1
# [21] = biological target: Neu5Ac(a2-3)Gal(b1-4)GlcNAc(b1-3)Gal(b1-4)GlcNAc(b1-6)[Gal(b1-3)]GalNAc
# Procedure, shortened: as §1
# [22] = biological target: Neu5Ac(a2-3)Gal(b1-4)GlcNAc(b1-3)Gal(b1-4)[Fuc(a1-3)]GlcNAc
# Procedure, shortened: as §1
# [23] = biological target: Neu5Ac(a2-3)Gal(b1-4)GlcNAc(b1-3)GalNAc
# Procedure, shortened: as §1
# [24] = biological target: Neu5Ac(a2-3)Gal(b1-4)GlcNAc(b1-3)[Neu5Ac(a2-3)Gal(b1-4)GlcNAc(b1-6)]GalNAc
# Procedure, shortened: as §1
# [25] = biological target: Neu5Ac(a2-3)Gal(b1-4)GlcNAc(b1-6)GalNAc
# Procedure, shortened: as §1
# [26] = biological target: Neu5Ac(a2-3)Gal(b1-4)GlcNAc(b1-6)[Gal(b1-3)]GalNAc
# Procedure, shortened: as §1
# [27] = biological target: Neu5Ac(a2-3)Gal(b1-4)GlcNAc(b1-6)[Neu5Ac(a2-3)Gal(b1-3)]GalNAc
# Procedure, shortened: as §1
# [28] = biological target: Neu5Ac(a2-3)Gal(b1-4)GlcNAc6S
# Procedure, shortened: as §1
# [29] = biological target: Neu5Ac(a2-3)Gal(b1-4)[Fuc(a1-3)]GlcNAc
# Procedure, shortened: as §1
# [30] = biological target: Neu5Ac(a2-3)Gal(b1-4)[Fuc(a1-3)]GlcNAc(b1-2)Man
# Procedure, shortened: as §1
# [31] = biological target: Neu5Ac(a2-3)Gal(b1-4)[Fuc(a1-3)]GlcNAc(b1-3)Gal
# Procedure, shortened: as §1
# [32] = biological target: Neu5Ac(a2-3)Gal(b1-4)[Fuc(a1-3)]GlcNAc(b1-3)Gal(b1-4)GlcNAc
# Procedure, shortened: as §1
# [33] = biological target: Neu5Ac(a2-3)Gal(b1-4)[Fuc(a1-3)]GlcNAc(b1-3)Gal(b1-4)[Fuc(a1-3)]GlcNAc(b1-3)Gal(b1-4)[Fuc(a1-3)]GlcNAc
# Procedure, shortened: as §1
# [34] = biological target: Neu5Ac(a2-3)Gal(b1-4)[Fuc(a1-3)]GlcNAc(b1-3)GalNAc
# Procedure, shortened: as §1
# [35] = biological target: Neu5Ac(a2-3)Gal(b1-4)[Fuc(a1-3)]GlcNAc(b1-6)[Gal(b1-3)]GalNAc
# Procedure, shortened: as §1
# [36] = biological target: Neu5Ac(a2-3)Gal(b1-4)[Fuc(a1-3)]GlcNAc(b1-6)[Neu5Ac(a2-3)Gal(b1-3)]GalNAc
# Procedure, shortened: as §1
# [37] = biological target: Neu5Ac(a2-3)Gal(b1-4)[Fuc(a1-3)]GlcNAc6S
# Procedure, shortened: as §1
# [38] = biological target: Neu5Ac(a2-3)Gal6S(b1-4)GlcNAc
# Procedure, shortened: as §1
binder,measurement,setting,value
B1,glycan array binding signal (z-score),[1],-0.329
same,glycan array binding signal (z-score),[2],-0.342
same,glycan array binding signal (z-score),Neu5Ac(a2-3)Gal(b1-4)Glc,-0.327
same,glycan array binding signal (z-score),[3],-0.337
same,glycan array binding signal (z-score),[4],-0.313
same,glycan array binding signal (z-score),[5],-0.342
same,glycan array binding signal (z-score),[6],-0.321
same,glycan array binding signal (z-score),[7],-0.313
same,glycan array binding signal (z-score),[8],-0.342
same,glycan array binding signal (z-score),[9],-0.316
same,glycan array binding signal (z-score),[10],-0.332
same,glycan array binding signal (z-score),[11],-0.523
same,glycan array binding signal (z-score),[12],-0.336
same,glycan array binding signal (z-score),[13],-0.354
same,glycan array binding signal (z-score),[14],-0.325
same,glycan array binding signal (z-score),[15],-0.321
same,glycan array binding signal (z-score),[16],-0.286
same,glycan array binding signal (z-score),[17],-0.342
same,glycan array binding signal (z-score),[18],-0.233
same,glycan array binding signal (z-score),[19],0.407
same,glycan array binding signal (z-score),[20],-0.322
same,glycan array binding signal (z-score),[21],1.06
same,glycan array binding signal (z-score),[22],-0.336
same,glycan array binding signal (z-score),[23],-0.312
same,glycan array binding signal (z-score),[24],-0.326
same,glycan array binding signal (z-score),[25],-0.334
same,glycan array binding signal (z-score),[26],0.773
same,glycan array binding signal (z-score),[27],1.08
same,glycan array binding signal (z-score),[28],-0.343
same,glycan array binding signal (z-score),[29],-0.34
same,glycan array binding signal (z-score),[30],-0.374
same,glycan array binding signal (z-score),[31],-0.342
same,glycan array binding signal (z-score),[32],-0.324
same,glycan array binding signal (z-score),[33],-0.279
same,glycan array binding signal (z-score),[34],-0.293
same,glycan array binding signal (z-score),[35],0.075
same,glycan array binding signal (z-score),[36],-0.031
same,glycan array binding signal (z-score),[37],-0.338
same,glycan array binding signal (z-score),[38],-0.343
